Measured values taken from the supplement of paper PMC11417369.
± gives the standard deviation of the averaged measurements. The list shows a part of the results.

system: PfAP2-I AP2 domain 3 (GST-tagged); assay: gcPBM binding intensity (ln(normalized median fluorescence intensity)); higher = stronger DNA binding
In short: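 GST-tagged P. falciparum DNA-binding domains produced in E. coli were incubated for 1 h on an Agilent 4 × 180k array of primer-extended double-stranded 36-bp intergenic genomic probes with negative controls. Binding intensity is the highest Masliner-normalised natural-log median intensity across replicate spots of either probe orientation, with bound protein detected by Alexa488 anti-GST antibody at 488 nm.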

Sequence	gcPBM binding intensity (ln)
ATATAACATTGTTTTGCATGTAAATATTCAATTTTT [TGCATGCA_site758]	7.57 ± 0.61
TCAAATTTAATCATAACACACATTCACATATGAATT [CACACA_site3199]	7.44 ± 0.61
TTTTTATAAATAATAAGGCGTATGAAAATAAAATAA [TGCATGCA_negctrl_site421]	7.82 ± 0.65
TCAAAATATCCAAAAGAATAAAGAAAAAAAAAAAGA [CACACA_negctrl_site1377]	7.5 ± 0.41
TATATATATATTTAATGTACATGTTTATTTTATCAT [XGTACX_site499]	8.975 ± 0.007
AATAAAATAAAAAAAAATAAAAAAAAAATAAAAAAT [XGTACX_negctrl_site245]	7.54 ± 0.45
TTTATAAAGGGAAAGGTGCAAAAGGTGAAAGTTTTA	10.9 ± 0.44
TATTTTTCTTTTTAAGTGCATGGTTGTATAAAATTT [GTGCAC_site9480]	8.63 ± 0.69
TCTTTTTTGAAGCATTTTGTTTTTTAATAAGTAAAA [TGCATGCA_negctrl_site247]	7.58 ± 0.59
TATATCAAAAACGAGACATGCATGCCGTTCATTTTG [TGCATGCA_site211]	7.29 ± 0.7
GAGTTTATATTTTAAGCATGCATATGTTATTATTAT [TGCATGCA_site1049]	7.75 ± 0.69
TTATTAACGGAACTCTGTACTTAAAAAATTTTAGAA [XGTACX_site8787]	7.66 ± 0.34
TATATAAGAATATATACACACATATCTGTATTTATA [CACACA_site5231]	7.59 ± 0.24
AAAAAAACAGAAAACACACAAATTATCTTATAATTA [CACACA_site6282]	7.29 ± 0.58
ATTGTTTCATTAAAATGTACATAAATTGTGTATAAT [XGTACX_site5341]	8.12 ± 0.3
ATACTGTATAGTCGCACACAAAAATATAAAATATTT [CACACA_site6004]	7.92 ± 0.3
AAAATTTGAAAAAGGGGTACTTAATAAAAGTTTCAT [XGTACX_site932]	7.79 ± 0.53
TTACACAAGGATAAAAACATATGTATGATTATATAT [CACACA_negctrl_site654]	7.71 ± 0.71
AATAGAAATTATATAAACATAAATGAATAAATAAAT [CACACA_negctrl_site1817]	7.44 ± 0.59
AGTATTATTTACTGCGCATGCTATTTATATATATTA [TGCATGCA_site876]	8.4 ± 0.83
AATTAAATGGATAAATGTACATATGTGAATATATTT [XGTACX_site84]	7.96 ± 0.56
CTACATATGTATAATATGCACACGTCATTTTCCCCT [CACACA_site2107]	8.82 ± 0.61

Sequence	gcPBM binding intensity (ln)
AATTATCAGGAATGATGTACTGAAATAAAAAAAAAA [XGTACX_site3280]	7.96 ± 0.66
ATTTTATTTAAATACACACACATATATATATTATAT [CACACA_site4607]	8.03 ± 0.49
CACAGACACCCATACACACACATACCCATATATATA [CACACA_site5023]	8.39 ± 0.67
AAAAAAAAAAAAAAAGCACACATCATATTTTAATTC [CACACA_site9109]	9 ± 0.41
ACACAAAAATGAAAAATGAAAAGGGTAATATATATA [CACACA_negctrl_site1490]	8.48 ± 0.57
ACATAGATCATAGGTTGTACGAAGGTATCCTTTATT [XGTACX_site694]	7.57 ± 0.61
TCATATATATATATATGTACATATTTATGTATGTAT [XGTACX_site6291]	7.62 ± 0.33
ACTTTTTGAATGTTTGCACACAAATCTCATAATTTT [CACACA_site358]	8.91 ± 0.36
TTTTTCTTTGAATAAATACACACGAGAAATGAAAGT [CACACA_site1688]	8.47 ± 0.59
AAAAGGAGCAAATACAAAAAAATGAACAAAAAAAAA [CACACA_negctrl_site716]	8.24 ± 0.47
TTTTGTAATGCTTTTTTTTTTTTTTTTTTTTTTTTT [CACACA_negctrl_site932]	9.885 ± 0.035
CATACCTATAGACACACACACACACGCACGCACAAA [CACACA_site6374]	8.54 ± 0.65
TAATAAATCAAATGCACACACACAAAAAAAAAAAAA [CACACA_site161]	9.24 ± 0.38
TTTTTATTTTTTTATGCATGTGATGAAACGTGCCTA [TGCATGCA_site141]	8.15 ± 0.74
ATAATTAACAAATACACACACACACCCAGACAAAAA [CACACA_site4445]	8.37 ± 0.16
AACAATTAGAATAACGCATGCATTTATAATATAGAA [TGCATGCA_site595]	8.15 ± 0.87
TGTGTATATATAAATACACACCAAATGTTAATATAT [CACACA_site8501]	7.83 ± 0.43
AAACAAATAAAAATATGTACACATTTTTTCATTATG [XGTACX_site5449]	7.81 ± 0.38
AAAATATTAAATATGTGTACATATAATAGTTCAATG [XGTACX_site5957]	7.71 ± 0.42
TTAAAAGAAAATAGGTGTACACATAATATATACATA [XGTACX_site7697]	8.3 ± 0.2
TTTTTAATCATAATATGTACATATAAAAATGGTTTG [XGTACX_site3996]	7.71 ± 0.54
AATATGTCTTAAAAAAGTACATAAATTTTAACTTCA [XGTACX_site6670]	7.865 ± 0.035

Sequence	gcPBM binding intensity (ln)
ATTAATTAAAATAGTTGTACAATCAAAAAAACAAAA [XGTACX_site7660]	8.15 ± 0.64
AACAAAGAGAAATAAACACACACAAAATAAAGAAAA [CACACA_site8704]	7.83 ± 0.82
TTTTTGTATGCTTCCCGACTACATTATGTCGTAAAT [GTGCAC_negctrl_site164]	8.12 ± 0.84
AGAATATATAAGTATACACACATATATATATATATA [CACACA_site201]	9.36 ± 0.47
ATATCGAAAATTTGGTGTACATTTTTATTTGTTCAA [XGTACX_site3094]	8.14 ± 0.48
TATAAAATAATTAAATGTACATAATATATAAAATAT [XGTACX_site6777]	7.81 ± 0.52
TTATAAATATTCACTGTGCACTGATGGAATATAAAT [GTGCAC_site9739]	10.6 ± 0.2
GATATTACGTGTTTGGTATTTTTTGATGTTAATAGG [CACACA_negctrl_site105]	7.82 ± 0.73
TTTATTTTTCATTGGGGTACACAAGTTTATTTTTGA [XGTACX_site4262]	8.27 ± 0.13
ATATCGTTTTTAAATTGTACATTCACTATAGAATAA [XGTACX_site6442]	8 ± 0.61
TTCTTTGTTTTTTTTTTTTTTTTAAAAGATAATATT [XGTACX_negctrl_site381]	7.88 ± 0.42
ATTTTTTCTTTTCGATGTACCCTTCTTATTCTTTAT [XGTACX_site3782]	8.2 ± 0.91
TATATCGCCTTCAAAAGTACTCATATAAAAAAAAAA [XGTACX_site7123]	7.82 ± 0.32
ATATATTTATTTTGTGCACACAACGCAAACCTTTTA [CACACA_site3508]	10.98 ± 0.092
AGTTCATATTTAAAAAGTACATATTTAAAAACTTCT [XGTACX_site4882]	7.78 ± 0.46
TTTGAACTTTTATATACACACATTATTATAGTATAG [CACACA_site6851]	7.72 ± 0.54
AAAAAAAAAAAAAAATGTACTTTTATTATTAATATA [XGTACX_site6357]	8.04 ± 0.47
ATGCATATATTTATGTGTACATATATTTGTAGGGGG [XGTACX_site6063]	9.675 ± 0.078
AAAAAAAACAGACACACACACACATATACATACATA [CACACA_site2665]	7.76 ± 0.38
TTATAGTAATAATAATGTACATTTATACACATATAT [XGTACX_site1965]	7.91 ± 0.51
ATATATATATATATAACATGCAAAGTTCAAAAAAAA [TGCATGCA_site943]	9.35 ± 0.23
TTTTTTTTATTATAAATATATATATTATAAAACGAA [XGTACX_negctrl_site189]	7.83 ± 0.11

Sequence	gcPBM binding intensity (ln)
TCAAAAAAAATTTTAGTGCATATTTTAGTCAAAACA	9.465 ± 0.035
CATTCTACAATAAAAAGTACATATATATATTATATA [XGTACX_site921]	7.76 ± 0.31
AAATTAAATGATAGAGCATGCGCTAAAAATGAGAAA [TGCATGCA_site937]	7.95 ± 0.76
ACACATATAATAGTTACATGCAAAAATACTTTTATT [TGCATGCA_site785]	7.57 ± 0.71
TTTTTATAACATAAAAGTACATATTTTTAATTTAAT [XGTACX_site4394]	7.45 ± 0.44
ATTTAAATAATATGTACACACATTTAAAAAGTTATA [CACACA_site7347]	8.045 ± 0.049
TAATATTTCGTTAAGTTTTAAAGAAAAAAAAAAAAA [CACACA_negctrl_site1253]	7.93 ± 0.91
AAATTAAAAATAATTACACACATAGAAAAGTTATAT [CACACA_site7137]	7.74 ± 0.7
TTTTCAGAAAGACATGCATACAAAAATAAAAAAGAT [TGCATGCA_site814]	8.61 ± 0.73
TTTTGCAAATATTACTGTACACAATCTCATATAATT [XGTACX_site2584]	8.13 ± 0.58
AAAACTTTTAGTTATACACACAACATAGAAAATATT [CACACA_site6287]	7.81 ± 0.69
AATGAGCGTTAAAAATGTACAGAAAATTGGAATTAT [XGTACX_site5743]	8.11 ± 0.56
CTCCTACAAATATGTAGTACATTCAAAATAAATACC [XGTACX_site8207]	8.19 ± 0.16
AACAATCAAATAGACACACACACACCCAAACATAAA [CACACA_site2757]	8.125 ± 0.035
ATGCAATAAATATACACACACAAATCTATATTTATA [CACACA_site7179]	8.04 ± 0.44
TTTTTTTTGTAGAATTGTACTTATAAAATATATATA [XGTACX_site2116]	7.8 ± 0.23
AAAAAATGGATGATCACACACTTCATAAAAGTTGCA [CACACA_site7109]	7.38 ± 0.47
AATTATTATATATATATATATATATATTTATATATT [GTGCAC_negctrl_site387]	7.84 ± 0.48
AGTTCAAGGATTAAGACACACATATAAATAAATAAA [CACACA_site3662]	7.97 ± 0.59
CATTATGTTGTAAATACACACATACCTATACATACA [CACACA_site6485]	7.91 ± 0.59
TTTTTTTTTTTATCTGCACACCCTTTTGTGAATATT [CACACA_site789]	9.26 ± 0.43
TCTGAGAATGATAAAAAAAAAAAAAATGAAAAATTA [CACACA_negctrl_site1478]	7.18 ± 0.61
